Test results from ChEMBL document CHEMBL5335779, “The research progress of SARS-CoV-2 main protease inhibitors from 2020 to 2022” (Eur J Med Chem, 2023).

Tested on: SARS-CoV-2
Assay: microbe, parasite or virus in culture
Conditions: Severe acute respiratory syndrome coronavirus 2, nCoV-2019BetaCoV/Wuhan/WIV04/2019, Vero C1008

SMILES	EC50 [nM]
CC(C)C[C@H](NC(=O)/C=C/c1ccccc1)C(=O)N[C@H](C=O)C[C@@H]1CCNC1=O	1060
O=C[C@H](C[C@@H]1CCNC1=O)NC(=O)[C@H](Cc1ccccc1)NC(=O)c1cc2ccccc2[nH]1	290
